# Assay results taken from ChEMBL document CHEMBL4888484, “Replenishing the malaria drug discovery pipeline: Screening and hit evaluation of the MMV Hit Generation Library 1 (HGL1) against asexual blood stage Plasmodium falciparum ,using a nano luciferase reporter read-out” (2022).
# Hit rate of the full screen: of about 150,000 compounds, about 540 (0.36%) showed an effect of 50% or more. This is one part of the list.
# Test system: Plasmodium falciparum
# Test: Primary screen in NF54 nanoGlo assay, in single point, at 2uM, 72h; a lower Z score goes with more inhibition
# Type: functional, Erythrocyte
# Conditions: timepoint 72 hour
SMILES,% Inhibition [%],Z score
COCCn1cncc1Cn1ccc(-c2cccc(-c3nccs3)c2)n1,-9,1.25
Cc1ccc(OCn2c(=O)sc3ccccc32)cc1C,27,-3.54
O=c1[nH]c2ccccc2nc1-c1nc([C@H]2CCOC2)no1,-22,2.51
CN(C)c1nc(-c2cccc(C(=O)NCc3ccc(CO)cc3)c2)nn1C,-16,2.13
CCc1cc(N(C)Cc2cnn(C)c2)nc(N(C)C)n1,-13,1.43
Cc1nccc(-c2ccccc2)c1C(=O)N[C@@H]1C[C@H]2OCC[C@@H]12,-25,2.23
COCc1cc(NCc2noc(-c3cccc(F)c3)n2)n2ncnc2n1,-8,1.06
CCN(c1ccc(C(=O)Nc2cnc3[nH]nc(C)c3c2)cn1)C(C)C,37,-1.34
Cc1cccc(C2=CCN(C(=O)NCC[C@]3(O)CCOC3)CC2)c1C,10,-1.35
CCCN1C[C@@H](CNCc2cc3c(O)cccc3s2)CC1=O,4,-0.55
CC(=O)Nc1ccc(Br)c(C)c1,-7,0.97
CN1CC(=O)N[C@@H](c2ccccc2F)C1=O,15,-1.94
O=C(c1ccco1)N1CCc2nc(N3CCCCC3)nc(N3CCCCC3)c2C1,-13,1.76
C[C@H]1CN(C)CCN1C(=O)c1cccc(-n2cnnn2)c1,-3,0.45
CCc1nncn1CCNC(=O)NC(C)(C)CC(C)(C)C,35,-3.98
Cn1ccc2cc(S(=O)(=O)N3CCC[C@H](C(=O)NCc4ccccc4F)C3)ccc21,-8,1.46
CCc1c(C(=O)NCc2cc(C)no2)nnn1-c1ccc(OC(C)C)cc1,-9,1.42
CS(=O)(=O)CCCOc1ccc(N2CCCC2)cc1,-10,1.48
Cc1cc(N(C)C)ccc1NC(=O)C1CCN(c2ccc3nncn3n2)CC1,-5,0.93
COCC[C@@](C)(C#N)NS(=O)(=O)c1cc(OC)ccc1OC,-19,2.19
COc1ccccc1-c1noc(Cn2cnc3ccccc3c2=O)n1,-7,0.97
COc1ccc([C@H](c2oc3ccccc3c2NC(=O)c2ccccc2)N2CCCCC2)cc1,-8,1.24
CC(C)n1ncc(C(=O)N2CCCc3nc(C#N)ccc32)c1Cl,-4,0.75
Cn1c(=O)c2ccccc2n(CC(=O)N2CCN(c3ccc(F)cc3)CC2)c1=O,3,-0.47
O=C(Nc1ncc(Cc2ccc(F)cc2)s1)[C@@H]1COc2ccccc2O1,-15,2.88
CCc1ccc(S(=O)(=O)Nc2cc(C)on2)s1,0,0.02
COCCN(Cc1ccc(C)s1)C(=O)c1cc(-c2ccc(C)s2)n[nH]1,-3,0.58

SMILES,% Inhibition [%],Z score
CCc1nc2c(s1)[C@@H](N(C)Cc1nnc(C3CC3)s1)CCC2,-6,0.65
CNC(=O)[C@@H]1CCCCN1Cc1ccnc(C(C)C)n1,-7,1.42
CCC(C)C(NS(=O)(=O)c1c(C)noc1C)C(N)=O (stereo not drawn),-10,1.21
COc1ccc(OCc2nc(C3CN(C(=O)c4sccc4C)C3)no2)cc1,9,-1.47
CC(C)(C)c1nc(Cn2ccc3ncncc3c2=O)no1,22,-2.83
CCn1c(CC2CCNCC2)nn(Cc2ccc(-n3cccn3)cc2)c1=O,-11,0.96
NC(=O)c1cc2c(cc1/C=C/c1ccccc1)OCO2,-17,2.33
Cc1cc(=O)n(CC(=O)N(CCc2ccccc2)CC2CCN(C)CC2)nc1C,-7,1.28
O=C(Nc1c(F)cccc1F)c1cn(-c2ccc(F)cc2F)c(=O)c2ccccc12,31,-3.66
CC(C)Cc1noc(CN(C)c2nc(-c3ccccn3)nc3c2CCNC3)n1,1,-0.24
O=C(CC[C@@H]1NC(=O)NC1=O)NCc1ccsc1,2,-0.4
CCCN(CCC)c1ncc(C(=O)Nc2ccc(OCC)cc2)c(N)n1,29,-3.27
COc1ccc(-c2c(-c3ccc(OC)c(OC)c3)[nH]c3[nH]c(=O)[nH]c(=O)c23)cc1,-4,0.4
COc1ccc(NC(=O)c2sc(-c3cn(C(C)C)c4ncccc34)nc2C)c(OC)c1,-1,0.13
Cc1ccc(Nc2cc(=O)[nH]c(N)n2)cc1,2,-0.26
COCCS(=O)(=O)N[C@@H](C)c1cc(OC)ccc1OC,18,-2.42
CC(C)c1csc(-c2csc(S(=O)(=O)Nc3ccc(F)c(F)c3)c2)n1,-13,1.86
C[C@@H](C(=O)N1CCCC1)N(C)CC1(CO)CCC1,-10,1.29
CC(=O)/C(=N\Nc1ccccc1)N1CCOCC1,-8,0.88
C[C@H](NS(C)(=O)=O)c1nc(C(C)(C)C2CCC2)no1,-10,1.8
O=C(CCc1cncc(F)c1)NCc1cccc(CO)n1,-2,0.32
Cc1nnc(N2CCN(C(=O)c3sc4cccc(F)c4c3C)CC2)c(C#N)c1C,-12,1.82
Cc1cc(C)n2ncc(CN3CCCC[C@H]3c3cc(C)on3)c2n1,11,-1.58
Cc1cnc(C)c(-c2ccc(C(=O)NCCC(=O)N3CCC(C)CC3)cc2)n1,-8,1.61
Cc1ccc(C)c(N2CCN(C(=O)c3nnc(-c4oc5ccc(C)cc5c4C)o3)CC2)c1,17,-2
Cc1ccc(OC[C@H]2c3ccsc3CCN2C(=O)CN(C(=O)c2ccccc2)C(C)(C)C)c(C)c1,-8,0.81
Cc1c(C2=CCN(S(=O)(=O)c3ccc(CC(C)C)cc3)CC2)c2ccccc2n1CC(=O)N1CCCC1,-15,2.36
